Measurements reported in PubChem BioAssay AID1030 (National Center for Advancing Translational Sciences (NCATS), 2008).
Among all 220,000 compounds or so, about 16,000 (7.3%) were called active. This list was built around the results that the source calls inconclusive (neither active nor inactive); the mix of calls is not that of the screen. Calls come from the whole dose curve; as a rule, active = well fitted inhibition curve with a large enough effect (not every such curve was filed as active); inconclusive = small, poorly fitted or top-dose-only effect, or another doubt; inactive = no such curve, though single readings can be large or run the other way. Potencies of inconclusive entries are left out as doubtful fits.

The compounds below were run against Aldehyde dehydrogenase 1A1 (Homo sapiens) (UniProt P00352) (assay: qHTS Assay for Inhibitors of Aldehyde Dehydrogenase 1 (ALDH1A1)). Conditions: Purified ALDH1A1, NADH fluorescence, propionaldehyde substrate; series mostly up to 75.3 µM; activity, negative = inhibition: at the top concentration.
Sequence of UniProt P00352 (P00352 whole entry, looked up): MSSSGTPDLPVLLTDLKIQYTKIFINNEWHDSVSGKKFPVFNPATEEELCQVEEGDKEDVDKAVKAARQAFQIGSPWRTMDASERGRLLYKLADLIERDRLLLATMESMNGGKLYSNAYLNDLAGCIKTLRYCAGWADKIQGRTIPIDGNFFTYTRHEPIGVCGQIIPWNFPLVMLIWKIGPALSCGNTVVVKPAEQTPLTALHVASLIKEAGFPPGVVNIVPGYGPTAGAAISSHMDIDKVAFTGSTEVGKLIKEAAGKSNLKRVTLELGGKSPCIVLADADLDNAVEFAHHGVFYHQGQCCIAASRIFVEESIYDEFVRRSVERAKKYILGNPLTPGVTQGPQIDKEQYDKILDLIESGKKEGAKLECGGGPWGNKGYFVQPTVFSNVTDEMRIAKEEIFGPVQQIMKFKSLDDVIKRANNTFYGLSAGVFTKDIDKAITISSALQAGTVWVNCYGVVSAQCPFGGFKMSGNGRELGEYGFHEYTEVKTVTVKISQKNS
Potency is the fitted concentration of half-maximal effect; tags give direction and shape of the fitted curve.
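Throughout, for activity, negative = inhibition: plate controls were no enzyme wells and a reference inhibitor.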

| SMILES | Potency | activity, negative = inhibition |
| --- | --- | --- |
| O=Cc1ccc(-c2ccc([N+](=O)[O-])cc2Cl)o1 | inconclusive [inhibitor, single point] |  |
| O=C(NNC1=NCCCCC1)c1ccccc1 |  | inactive: 5.77% |
| CC(=O)c1c(C)[nH]c(C(=O)CSc2nc3ccccc3c(=O)n2CCCO)c1C | inconclusive [inhibitor, single point] |  |
| c1ccc2c(C[n+]3csc4ccccc43)cccc2c1 | active: 10 µM |  |
| CCCCCC1=C2CNC(Cc3ccccc3)(C(=O)OC)C=C2C(C)C1=O (stereo unspecified) |  | inactive: -6.81% |
| CCOC(=O)C1CCCN(S(=O)(=O)c2cc(Br)cc3c2N(C(=O)C2CC2)CC3)C1 (stereo unspecified) | inconclusive [inhibitor, single point] |  |
| CCCCSc1nc2c(c(=O)[nH]c(=O)n2C)n1CCc1ccccc1 | active: 2.51 µM |  |
| N#C/C(=N\Nc1ccc(Cl)cc1)C(=O)c1ccsc1 |  | inactive: -2.67% |
| COc1ccc(-c2nnc(SCC(=O)c3cccs3)o2)c(OC)c1 | inconclusive [inhibitor, single point] |  |
| COC(=O)C1=CN(Cc2cccs2)C=C(C(=O)OC)C1c1ccc(OC)cc1OC | inconclusive [inhibitor, partial curve] |  |
| Cc1ccc(CN2CCN(/N=C\c3cccc([N+](=O)[O-])c3)CC2)cc1 | inconclusive [inhibitor, single point] |  |
| OC[C@H]1NC[C@H](O)[C@@H](O)[C@H]1O |  | inactive: -13.3% |
| CCN(CC)S(=O)(=O)c1ccc(Nc2nc3ccccc3n3nnnc23)cc1 |  | inactive: -7.88% |
| CCc1cccc(NC(=O)c2cc(OC)c(OC)c(OC)c2)c1 |  | inactive: 6.53% |
| Cc1cc(C)cc(NC(=O)C(=O)NCCCN2CCOCC2)c1 |  | inactive: 12.2% |
| Cc1ccnc2nc(C(=O)Nc3nnc(-c4ccc(Cl)cc4)o3)nn12 |  | inactive: 7.18% |
| O=C(CSc1nc2ccccc2o1)N1CCN(c2ccccc2)CC1 | inconclusive [inhibitor, single point] |  |
| COc1cc(NC(=O)COC(=O)c2cnc(C)cn2)c(C)cc1[N+](=O)[O-] |  | inactive: -4.73% |
| CC(=O)NNC(=O)c1csc(-c2csc(C)n2)n1 |  | inactive: 0.828% |
| CCOC(=O)Cc1csc(NC(=O)CSc2nnc3ccccn23)n1 |  | inactive: 2.56% |
| CC(C)(C)c1ccc(/C=C/C(=O)Nc2nncs2)cc1 |  | inactive: -1.63% |
| CN(Cc1cn(C)nc1-c1ccccc1F)CC1CCCCO1 (stereo unspecified) |  | inactive: -3.39% |
| Cc1ccccc1-n1ccnc1SCC(=O)NCc1ccco1 |  | inactive: -10.4% |
| COc1ccccc1Cn1c(=O)c2ccccc2n2c(SCc3csc(C)n3)nnc12 | inconclusive [inhibitor, single point] |  |
| CN1C(=O)/C(=C/C=C2\SCCN2C)SC1=S | inconclusive [inhibitor, single point] |  |
| c1c[nH]c(CN2CCN(Cc3ncc[nH]3)CC2)n1 |  | inactive: 1.33% [at 13.5 µM] |

| SMILES | Potency | activity, negative = inhibition |
| --- | --- | --- |
| Cc1cc(C(=O)Cn2nnc(-c3ccc(Cl)cc3)n2)c(C)n1CC1CCCO1 (stereo unspecified) | inconclusive [inhibitor, single point] |  |
| Cc1ccc(OCCNS(=O)(=O)c2ccc(N3CCCC3=O)cc2)cc1C | inconclusive [inhibitor, single point] |  |
| CS(=O)(=O)N(Cc1ccc(Cl)cc1)c1ccc(C(=O)N/N=C/c2cc3ccccc3nc2Cl)cc1 | inconclusive [inhibitor, single point] |  |
| O=C(Nc1ccc(-c2cn3c(n2)SCC3)cc1)c1ccco1 | inconclusive [inhibitor, single point] |  |
| COc1ccc(-c2cn3cccnc3n2)cc1NC(=O)CC(C)C | inconclusive [inhibitor, single point] |  |
| COC(=O)c1ccccc1OCCCCN1CC(C)OC(C)C1 (stereo unspecified) | inconclusive [inhibitor, single point] |  |
| CCOC(=O)C(c1ccccc1)C(Nc1cc(C(F)(F)F)cc(C(F)(F)F)c1)c1ccccn1 (stereo unspecified) |  | inactive: -1.62% |
| CC1(C)Cc2c(C#N)c(NCC3CCCO3)nc(-c3ccco3)c2CO1 (stereo unspecified) | inconclusive [inhibitor, partial curve] |  |
| CCOC(=O)C1=C(C)OC(N)=C(C#N)C1c1ccc(C)o1 (stereo unspecified) | inconclusive [inhibitor, single point] |  |
| CCOc1ccc(N(Cc2cc3cc(OC)ccc3[nH]c2=O)C(=O)C2CCCO2)cc1 (stereo unspecified) | inconclusive [inhibitor, partial curve] |  |
| COc1ccc(NC(=O)c2oc3ccccc3c2NC(=O)C(C)(C)C)cc1 | inconclusive [inhibitor, single point] |  |
| N#Cc1nc(COc2cccc(Cl)c2)oc1N1CCCC1 |  | inactive: 1.86% |
| CCN(CC)C(=O)CN(C#N)c1nc(OC)nc(N(C)C)n1 |  | inactive: -6.8% |
| COc1ccc(-c2n[nH]c(C)c2-c2cc(OC)ccc2O)cc1 | inconclusive [inhibitor, single point] |  |
| Cc1c(Cl)cccc1NC(=S)NNc1ncc(C(F)(F)F)cc1Cl | active: 14.1 µM |  |
| O=C(/C(=C/O)N=Nc1ccc(Cl)cc1)c1ccncc1 | active: 10 µM |  |
| C=CCN1C(=O)C(O)(CC(=O)c2ccccn2)c2ccccc21 (stereo unspecified) | active: 0.355 µM |  |
| CCOCCCN(C(=O)Cn1nnc(-c2ccc(OC)c(OC)c2)n1)C(CC)C(=O)NC1CCCC1 (stereo unspecified) |  | inactive: 1.58% |
| O=C(O)c1cnc(-c2ccccc2)nc1Sc1ccc(Cl)cc1 |  | inactive: 2.12% |
| c1ccc(CCc2nn3c(C4COc5ccccc5O4)nnc3s2)cc1 (stereo unspecified) | active: 10 µM |  |
| O=C1C(c2ccc(F)cc2)N(Cc2ccc3c(c2)OCO3)C(=O)CN1C1CCCCCC1 (stereo unspecified) | inconclusive [inhibitor, single point] |  |
| O=C(c1ccccc1Sc1ccc([N+](=O)[O-])cc1Cl)N1CCOCC1 | inconclusive [inhibitor, single point] |  |
| O=c1cc(C(F)(F)F)[nH]c2c(C(F)(F)F)cccc12 | inconclusive [inhibitor, partial curve] |  |
| O=C(N/N=C/c1ccc(Cl)cc1Cl)c1n[nH]c2c1CCCC2 |  | inactive: 12.5% |
| O=C(CCSc1nnc(-c2ccco2)o1)N1CCOCC1 |  | inactive: 8.55% |
